The test system of this assay is L1210 leukemia ip in BDF1 mice, survival T/C. Description: NCI In Vivo Anticancer Drug Screen. Data for tumor model L1210 Leukemia (intraperitoneal) in B6D2F1 (BDF1) mice. To be noted: vehicle: saline, higher = longer survival.

T/C data for two molecules are collected here from PubChem BioAssay AID248 (DTP/NCI, 2004).

Toxic doses and inconclusive results are not listed. For part of its entries the source gives two or more results. This list holds those alone. There may be further records. The values listed for one entry differ for a reason that is not stated; dose, time, organism, isomer or construct need not be as stated for each record.

Consider `COC(=O)[C@@H](O)[C@](O)(CCC(C)C)C(=O)O[C@@H]1C(OC)=C[C@]23CCCN2CCc2cc4c(cc2[C@H]13)OCO4`, for which the T/C (endpoint: mean survival time, dose: 16.0 mg/kg/injection, schedule: Q01DX009 (ip)) was 110 % of control and 150 % of control.

With `CN(N=O)C(N)=O`, the T/C (endpoint: median survival time, dose: 25.0 mg/kg/injection, schedule: Q01DX017 (ip)) is 105 % of control and 172 % of control.
